# From PubChem BioAssay (NCATS)
# This list was built around the results that the source calls inconclusive (neither active nor inactive); the mix of calls is not that of the screen. Potencies of inconclusive entries are left out as doubtful fits. Active and inactive are the calls of the source. The call rests on the fitted dose curve; in most records, active means well fitted inhibition curve with a large enough effect; inconclusive means small, poorly fitted or top-dose-only effect; inactive means no such curve, though single readings can be large or run the other way.
# Biological target: Rap guanine nucleotide exchange factor 3 (Homo sapiens) (UniProt O95398)
# Sequence of UniProt O95398 (O95398 whole entry, looked up): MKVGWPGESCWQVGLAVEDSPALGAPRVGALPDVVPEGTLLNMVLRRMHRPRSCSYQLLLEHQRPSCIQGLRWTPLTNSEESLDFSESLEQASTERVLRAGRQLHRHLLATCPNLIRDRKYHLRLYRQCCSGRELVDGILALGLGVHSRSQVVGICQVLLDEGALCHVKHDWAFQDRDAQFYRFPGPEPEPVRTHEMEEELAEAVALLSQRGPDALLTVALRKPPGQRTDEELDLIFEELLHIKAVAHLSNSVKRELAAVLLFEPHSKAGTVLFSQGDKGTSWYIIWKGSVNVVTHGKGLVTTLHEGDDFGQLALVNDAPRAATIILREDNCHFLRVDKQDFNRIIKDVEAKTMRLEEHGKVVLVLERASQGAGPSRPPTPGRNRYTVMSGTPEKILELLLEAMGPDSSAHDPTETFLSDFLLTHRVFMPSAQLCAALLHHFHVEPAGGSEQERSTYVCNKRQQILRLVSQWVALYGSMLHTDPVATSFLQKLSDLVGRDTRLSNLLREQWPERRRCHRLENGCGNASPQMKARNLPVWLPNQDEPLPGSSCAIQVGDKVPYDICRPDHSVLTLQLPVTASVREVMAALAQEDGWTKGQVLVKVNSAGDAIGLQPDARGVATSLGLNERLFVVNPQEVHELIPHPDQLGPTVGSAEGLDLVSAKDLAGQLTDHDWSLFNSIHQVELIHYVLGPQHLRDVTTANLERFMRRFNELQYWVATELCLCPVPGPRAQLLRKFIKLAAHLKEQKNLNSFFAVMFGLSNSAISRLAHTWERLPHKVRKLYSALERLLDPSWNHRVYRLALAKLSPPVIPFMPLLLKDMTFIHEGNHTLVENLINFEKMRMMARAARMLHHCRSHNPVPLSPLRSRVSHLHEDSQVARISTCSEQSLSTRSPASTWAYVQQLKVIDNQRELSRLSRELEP
# Assay: Confirmatory qHTS for antagonist of cAMP-regulated guanine nucleotide exchange factor 3 (EPAC1) (AID 1645880); further: nearly all actives have a fitted effect of over 55% in size;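 on activity, negative = inhibition: plate controls were DMSO only for no effect and full effect of the ATA control for full effect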
# Conditions: EPAC1 Rap1B-BODIPY-GDP exchange, fluorescence; activity, negative = inhibition: at 115 µM (top of the series)
# Summary of the method: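 Released BODIPY-GDP fluoresces less than Rap1-bound BODIPY-GDP; the signal is followed at 480/540 nm at 5-min intervals over 30 min, after 5 min at room temperature. Reactions contain 100 nM EPAC1, 250 nM RAP1B-BODIPY-GDP and 50 uM GDP; results are normalized to ATA and DMSO.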
# Potency means the concentration at half of the fitted maximal effect; tags describe the fitted curve by direction and shape.
SMILES,Potency,"activity, negative = inhibition"
COc1ccc(/C=C2/SC(=O)N(CCC(=O)Nc3ccc(S(=O)(=O)Nc4nccs4)cc3)C2=O)cc1,"inconclusive [inhibitor, partial curve, poor fit]",
O=C1N(Cc2ccccc2)c2ccccc2C1(O)c1c[nH]c2ccccc12 (stereo not given),"inconclusive [inhibitor, partial curve, poor fit]",
CC(NC(=O)COc1ccccc1-c1ccccc1)c1ccccc1 (stereo not given),"inconclusive [inhibitor, full curve]",
CC(C)(C)Cc1c(-c2ccco2)nc2ccc(Cl)cn12,"inconclusive [inhibitor, partial curve, poor fit]",
Oc1ccc(NCc2cccc(OCc3ccccc3)c2)cc1,"inconclusive [inhibitor, partial curve]",
Cc1ccc(C(C)C)c(OCC(=O)NCC2(N3CCOCC3)CCCCC2)c1,"inconclusive [inhibitor, partial curve]",
COc1ccc(C(CNC(=O)c2cccc(S(=O)(=O)Nc3ccc(C)cc3)c2)N2CCOCC2)cc1 (stereo not given),"inconclusive [inhibitor, partial curve, poor fit]",
CC1C/C(=C/c2cccn2C)C(=O)/C(=C/c2cccn2C)C1 (stereo not given),active: 16.9 µM,
CCC(C(=O)Nc1cc(OC)ccc1OC)n1nc(-c2ccccc2)c2c(c1=O)CCCC2 (stereo not given),inactive,
Cc1cc(Cl)ccc1OCCCC(=O)OCC(=O)c1c(N)n(C)c(=O)n(C)c1=O,"inconclusive [inhibitor, full curve, poor fit]",
O=C(/C=C/c1ccc2c(c1)OCO2)Nc1cc(S(=O)(=O)N2CCOCC2)ccc1N1CCOCC1,inactive,
Oc1ccc(-c2csc(Nc3cccnc3)n2)cc1,inactive,
COc1ccc(OCc2nc3ccccc3n2C(C)c2ccccc2)cc1 (stereo not given),"inconclusive [inhibitor, single point]",
N#Cc1c(SCC(=O)Nc2nncs2)sc2c(O)cc(=O)[nH]c12,"inconclusive [inhibitor, full curve]",
Fc1ccc(C(Nc2ccccn2)c2c[nH]c3ccccc23)cc1 (stereo not given),inactive,
Cc1ccccc1C1CC(=O)c2ccccc2C1C (stereo not given),"inconclusive [inhibitor, partial curve, poor fit]",
COc1ccc(Cl)cc1NC(=O)CN(C)Cc1cccs1,inactive,
CCN1CCc2c(sc(NC(=O)c3cc4ccccc4cc3OC)c2C(N)=O)C1,"inconclusive [inhibitor, partial curve]",
CC(Oc1ccc(Cl)cc1)C(=O)Nc1sccc1C(N)=O (stereo not given),"inconclusive [inhibitor, partial curve]",
CCOCc1nnc(NC(=O)C2c3ccccc3Oc3ccccc32)s1,"inconclusive [inhibitor, partial curve, poor fit]",

SMILES,Potency,"activity, negative = inhibition"
O=C(CCN1C(=O)S/C(=C\c2ccc(Cl)cc2)C1=O)Nc1ccc(C(=O)O)cc1,"inconclusive [inhibitor, partial curve, poor fit]",
COc1ccc(C(CC(=O)N2CCCC2)c2ccc(F)cc2)cc1 (stereo not given),inactive,
O=C(NCc1ccco1)c1sc(=S)n2c1[nH]c(=O)c1ccccc12,active: 14.1 µM,
Cc1cccc(C(=O)OCC(=O)c2ccc(CC(=O)N3CCOCC3)s2)c1C,"inconclusive [inhibitor, partial curve]",
CCCCC(=O)N(c1ccc(C(=O)O)cc1)c1nc(-c2ccc(Cl)cc2)c(CC)s1,active: 50.1 µM,
C=C1SC(Nc2c(C)cc(C)cc2C)=NC12CCCCC2,inactive,
Cc1nc2sc(C(c3cccs3)N3CCN(c4ccccc4)CC3)c(O)n2n1 (stereo not given),inactive,
Cc1cc2ccccn2c1C(=O)c1ccc(F)cc1,inactive,
CCOc1ccc(-n2c(C)nc3cc(C(=O)NCc4ccc(C)cc4)ccc32)cc1,,inconclusive: -39% [inhibitor]
N#Cc1c(N)c(C#N)c(-c2ccc(O)cc2)c2c1CCCC2,"inconclusive [inhibitor, full curve]",
Cc1ccc(-n2c(SCC(=O)N/N=C/c3ccccc3C(=O)O)nnc2-c2ccc(Cl)cc2)cc1,inactive,
Cc1ccc2nc(-c3ccc(NC(=O)CSc4nccc(=O)[nH]4)cc3)sc2c1,"inconclusive [inhibitor, full curve, poor fit]",
CC(C)c1nc(SCC(=O)N2CCCc3ccccc32)c2c(=O)n(C)c(=O)n(C)c2n1,inactive,
CCn1c(SCC(=O)Nc2sc3c(c2C(N)=O)CCC(C)C3)nnc1-c1ccco1 (stereo not given),"inconclusive [inhibitor, partial curve]",
Cc1nnc2ccc(-c3ccc(NC(=O)Cc4cccs4)cc3)nn12,"inconclusive [inhibitor, partial curve, poor fit]",
CCc1nc2c(OCC3CCCCC3)cccn2c1N(C)C(=O)c1ccc(C)cc1,"inconclusive [inhibitor, partial curve, poor fit]",
N#CCC(=O)N/N=C/c1coc2ccccc2c1=O,"inconclusive [inhibitor, partial curve]",
COCCCNC(=O)C[C@@H]1C[C@@]2(C(=O)OC)CCCCC=C2N(Cc2cccc3ccccc23)C1=O,"inconclusive [inhibitor, partial curve, poor fit]",
CCC(=O)NC(c1cc(Cl)c2ccccc2c1O)C(C)C (stereo not given),"inconclusive [inhibitor, full curve, poor fit]",
CC1=NN(c2ccccc2)C(=O)C1/C=C1\NC(=S)NC1=O (stereo not given),active: 67.5 µM,
